Results reported in publication PMC10036327.
These are yes or no findings as the source states them, for the method shown. In cells and extracts the contact can be indirect. Some binding calls cover weakened binding; strength is not graded here. Values belong to the substance of their own block, whether it stands above or below them.

The chains behind the UniProt entries cited, without tags or fusion partners. Where a name states a change or a piece, a line headed by the entry shows the natural chain unless it says otherwise.
UniProt Q13485: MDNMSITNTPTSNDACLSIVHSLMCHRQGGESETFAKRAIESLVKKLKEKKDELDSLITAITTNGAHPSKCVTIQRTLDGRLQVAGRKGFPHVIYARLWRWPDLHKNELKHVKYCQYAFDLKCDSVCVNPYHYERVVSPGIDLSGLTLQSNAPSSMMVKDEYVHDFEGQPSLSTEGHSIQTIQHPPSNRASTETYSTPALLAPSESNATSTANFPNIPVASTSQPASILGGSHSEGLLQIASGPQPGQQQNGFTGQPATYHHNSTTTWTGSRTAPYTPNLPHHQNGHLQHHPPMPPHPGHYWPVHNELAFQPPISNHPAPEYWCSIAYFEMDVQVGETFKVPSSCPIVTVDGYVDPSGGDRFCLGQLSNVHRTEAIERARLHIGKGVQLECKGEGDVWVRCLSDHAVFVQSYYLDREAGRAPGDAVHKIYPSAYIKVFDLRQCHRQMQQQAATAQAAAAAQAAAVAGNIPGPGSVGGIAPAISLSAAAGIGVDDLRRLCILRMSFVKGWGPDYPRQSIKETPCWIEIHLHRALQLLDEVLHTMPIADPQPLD
UniProt Q92793: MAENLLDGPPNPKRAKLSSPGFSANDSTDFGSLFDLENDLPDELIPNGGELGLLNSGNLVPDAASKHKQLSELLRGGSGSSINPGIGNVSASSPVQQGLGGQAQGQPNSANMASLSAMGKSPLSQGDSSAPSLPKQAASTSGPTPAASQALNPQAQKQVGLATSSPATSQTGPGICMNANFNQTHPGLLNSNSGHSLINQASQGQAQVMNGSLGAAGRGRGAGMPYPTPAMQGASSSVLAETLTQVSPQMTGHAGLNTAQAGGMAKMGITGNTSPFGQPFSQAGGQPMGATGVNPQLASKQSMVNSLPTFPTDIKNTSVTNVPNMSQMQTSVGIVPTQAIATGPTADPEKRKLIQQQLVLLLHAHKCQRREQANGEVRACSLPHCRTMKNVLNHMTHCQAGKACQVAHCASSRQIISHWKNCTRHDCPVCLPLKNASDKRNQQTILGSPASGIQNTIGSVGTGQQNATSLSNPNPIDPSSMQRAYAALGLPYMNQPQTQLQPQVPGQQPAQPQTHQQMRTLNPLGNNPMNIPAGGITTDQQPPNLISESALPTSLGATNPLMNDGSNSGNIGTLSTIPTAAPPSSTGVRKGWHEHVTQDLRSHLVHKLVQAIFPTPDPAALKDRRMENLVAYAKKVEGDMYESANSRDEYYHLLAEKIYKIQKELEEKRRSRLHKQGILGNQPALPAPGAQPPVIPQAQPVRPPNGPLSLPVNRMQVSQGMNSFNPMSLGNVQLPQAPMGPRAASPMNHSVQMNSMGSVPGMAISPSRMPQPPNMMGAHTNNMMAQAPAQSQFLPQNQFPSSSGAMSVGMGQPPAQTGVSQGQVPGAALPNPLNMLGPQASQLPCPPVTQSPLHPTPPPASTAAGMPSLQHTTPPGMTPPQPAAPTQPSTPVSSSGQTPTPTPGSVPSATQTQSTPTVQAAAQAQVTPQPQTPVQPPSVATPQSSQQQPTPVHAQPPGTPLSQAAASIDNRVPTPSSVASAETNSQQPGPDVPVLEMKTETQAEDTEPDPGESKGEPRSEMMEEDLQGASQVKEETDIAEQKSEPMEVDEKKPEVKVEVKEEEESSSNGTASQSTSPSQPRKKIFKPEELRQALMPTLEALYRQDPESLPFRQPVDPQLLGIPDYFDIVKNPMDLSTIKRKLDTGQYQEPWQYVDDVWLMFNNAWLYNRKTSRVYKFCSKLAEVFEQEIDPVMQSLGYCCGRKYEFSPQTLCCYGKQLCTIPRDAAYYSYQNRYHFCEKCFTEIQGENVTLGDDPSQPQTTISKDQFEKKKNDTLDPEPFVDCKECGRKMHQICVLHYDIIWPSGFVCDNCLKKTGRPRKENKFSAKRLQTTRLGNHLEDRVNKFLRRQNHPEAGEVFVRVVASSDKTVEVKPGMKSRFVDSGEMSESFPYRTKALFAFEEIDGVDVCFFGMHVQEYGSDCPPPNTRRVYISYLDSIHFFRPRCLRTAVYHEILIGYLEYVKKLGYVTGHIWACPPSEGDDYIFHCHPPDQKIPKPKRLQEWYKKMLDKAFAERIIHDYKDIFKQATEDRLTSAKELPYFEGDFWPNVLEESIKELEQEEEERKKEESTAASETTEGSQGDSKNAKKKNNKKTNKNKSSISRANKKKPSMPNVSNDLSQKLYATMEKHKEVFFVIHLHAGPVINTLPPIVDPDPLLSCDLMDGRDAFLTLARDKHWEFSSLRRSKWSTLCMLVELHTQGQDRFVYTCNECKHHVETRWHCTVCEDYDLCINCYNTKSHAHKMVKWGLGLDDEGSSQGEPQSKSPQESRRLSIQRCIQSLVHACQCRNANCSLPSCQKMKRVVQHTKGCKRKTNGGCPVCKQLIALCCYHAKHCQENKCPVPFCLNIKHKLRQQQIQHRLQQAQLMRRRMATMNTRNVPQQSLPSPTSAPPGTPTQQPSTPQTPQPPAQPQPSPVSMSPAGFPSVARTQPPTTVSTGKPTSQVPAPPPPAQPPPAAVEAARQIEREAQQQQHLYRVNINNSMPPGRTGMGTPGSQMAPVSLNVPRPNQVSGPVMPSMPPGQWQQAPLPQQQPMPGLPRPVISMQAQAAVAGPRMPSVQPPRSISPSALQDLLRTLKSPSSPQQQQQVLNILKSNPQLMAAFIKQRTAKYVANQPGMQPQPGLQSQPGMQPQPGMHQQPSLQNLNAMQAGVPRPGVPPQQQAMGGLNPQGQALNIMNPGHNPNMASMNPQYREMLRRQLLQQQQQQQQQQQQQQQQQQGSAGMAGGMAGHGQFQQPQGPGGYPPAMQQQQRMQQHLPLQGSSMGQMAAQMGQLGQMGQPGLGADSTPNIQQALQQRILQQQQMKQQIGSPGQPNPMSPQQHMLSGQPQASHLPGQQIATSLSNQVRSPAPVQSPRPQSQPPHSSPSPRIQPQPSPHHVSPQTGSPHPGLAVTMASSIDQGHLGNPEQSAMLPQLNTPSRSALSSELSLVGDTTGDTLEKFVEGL
UniProt Q09472: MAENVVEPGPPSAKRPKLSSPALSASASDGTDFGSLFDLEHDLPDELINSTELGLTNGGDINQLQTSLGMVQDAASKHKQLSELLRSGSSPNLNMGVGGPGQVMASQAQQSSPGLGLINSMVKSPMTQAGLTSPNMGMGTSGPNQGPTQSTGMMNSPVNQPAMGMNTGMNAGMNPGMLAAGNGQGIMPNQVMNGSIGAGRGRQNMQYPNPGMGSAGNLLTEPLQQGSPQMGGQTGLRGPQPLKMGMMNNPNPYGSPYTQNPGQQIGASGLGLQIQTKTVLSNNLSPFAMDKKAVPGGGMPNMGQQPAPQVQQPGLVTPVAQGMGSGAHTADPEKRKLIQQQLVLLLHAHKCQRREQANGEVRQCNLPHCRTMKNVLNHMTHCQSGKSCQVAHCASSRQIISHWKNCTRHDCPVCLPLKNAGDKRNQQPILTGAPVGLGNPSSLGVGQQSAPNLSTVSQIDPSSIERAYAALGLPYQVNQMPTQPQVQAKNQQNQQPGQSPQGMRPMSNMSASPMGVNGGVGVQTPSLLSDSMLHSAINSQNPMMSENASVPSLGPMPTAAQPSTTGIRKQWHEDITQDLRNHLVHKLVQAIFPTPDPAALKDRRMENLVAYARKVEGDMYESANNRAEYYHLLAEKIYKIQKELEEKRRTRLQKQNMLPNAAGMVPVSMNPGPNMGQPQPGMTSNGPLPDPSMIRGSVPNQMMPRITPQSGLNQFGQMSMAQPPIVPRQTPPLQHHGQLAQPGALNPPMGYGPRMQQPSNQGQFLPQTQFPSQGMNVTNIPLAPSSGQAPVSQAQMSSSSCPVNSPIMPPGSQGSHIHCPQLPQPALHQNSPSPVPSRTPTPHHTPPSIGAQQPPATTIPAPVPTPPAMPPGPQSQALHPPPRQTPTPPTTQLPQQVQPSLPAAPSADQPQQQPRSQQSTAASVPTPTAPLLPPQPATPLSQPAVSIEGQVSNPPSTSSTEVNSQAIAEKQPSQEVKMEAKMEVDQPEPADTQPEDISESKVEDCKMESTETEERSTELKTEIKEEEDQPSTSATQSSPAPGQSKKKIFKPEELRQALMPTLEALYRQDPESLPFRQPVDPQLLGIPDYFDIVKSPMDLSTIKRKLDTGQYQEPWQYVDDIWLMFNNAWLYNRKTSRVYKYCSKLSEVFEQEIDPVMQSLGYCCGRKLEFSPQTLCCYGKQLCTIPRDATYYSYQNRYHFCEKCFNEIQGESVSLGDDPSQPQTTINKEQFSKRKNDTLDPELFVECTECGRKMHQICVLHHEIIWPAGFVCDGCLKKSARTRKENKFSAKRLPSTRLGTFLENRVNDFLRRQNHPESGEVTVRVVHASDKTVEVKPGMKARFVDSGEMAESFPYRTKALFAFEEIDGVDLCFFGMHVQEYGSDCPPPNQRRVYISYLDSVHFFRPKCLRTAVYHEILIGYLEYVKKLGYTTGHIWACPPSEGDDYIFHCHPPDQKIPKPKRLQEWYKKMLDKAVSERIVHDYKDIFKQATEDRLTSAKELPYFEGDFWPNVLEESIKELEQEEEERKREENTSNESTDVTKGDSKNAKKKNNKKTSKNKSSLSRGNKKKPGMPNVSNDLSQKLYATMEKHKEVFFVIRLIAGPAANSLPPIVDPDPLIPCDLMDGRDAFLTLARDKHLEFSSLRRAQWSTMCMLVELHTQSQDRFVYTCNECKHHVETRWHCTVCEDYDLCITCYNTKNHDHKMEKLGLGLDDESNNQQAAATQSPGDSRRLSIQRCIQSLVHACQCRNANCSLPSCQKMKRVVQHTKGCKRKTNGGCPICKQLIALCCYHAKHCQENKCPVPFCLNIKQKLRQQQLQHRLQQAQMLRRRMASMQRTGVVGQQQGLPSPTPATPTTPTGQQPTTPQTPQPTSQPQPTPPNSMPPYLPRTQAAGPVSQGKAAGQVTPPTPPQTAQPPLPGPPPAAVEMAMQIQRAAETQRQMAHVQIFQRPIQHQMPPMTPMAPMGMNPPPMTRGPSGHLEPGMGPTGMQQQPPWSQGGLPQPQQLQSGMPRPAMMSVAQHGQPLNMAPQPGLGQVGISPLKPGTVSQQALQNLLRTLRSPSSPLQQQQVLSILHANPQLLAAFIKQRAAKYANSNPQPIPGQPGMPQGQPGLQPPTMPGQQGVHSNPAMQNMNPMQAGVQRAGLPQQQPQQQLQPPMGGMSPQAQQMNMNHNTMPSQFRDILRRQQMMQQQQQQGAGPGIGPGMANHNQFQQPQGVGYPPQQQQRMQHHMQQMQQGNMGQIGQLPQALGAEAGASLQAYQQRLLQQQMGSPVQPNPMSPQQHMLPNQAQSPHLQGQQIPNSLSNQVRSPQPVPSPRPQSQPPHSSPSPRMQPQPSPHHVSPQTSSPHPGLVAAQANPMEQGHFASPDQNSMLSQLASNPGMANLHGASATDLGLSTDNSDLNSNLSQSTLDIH
UniProt Q15796: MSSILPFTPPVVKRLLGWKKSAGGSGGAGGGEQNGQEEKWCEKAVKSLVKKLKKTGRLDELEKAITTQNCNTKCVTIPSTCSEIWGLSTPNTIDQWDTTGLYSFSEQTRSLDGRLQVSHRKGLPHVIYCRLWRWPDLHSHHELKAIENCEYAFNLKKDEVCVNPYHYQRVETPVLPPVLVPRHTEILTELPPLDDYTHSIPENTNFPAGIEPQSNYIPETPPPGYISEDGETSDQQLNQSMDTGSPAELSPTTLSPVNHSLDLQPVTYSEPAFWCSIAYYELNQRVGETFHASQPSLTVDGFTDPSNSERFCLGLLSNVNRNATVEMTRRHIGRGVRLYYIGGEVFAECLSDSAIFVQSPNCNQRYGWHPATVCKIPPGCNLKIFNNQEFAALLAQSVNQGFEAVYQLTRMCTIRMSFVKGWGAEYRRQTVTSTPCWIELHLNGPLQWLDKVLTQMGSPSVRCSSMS
UniProt P84022: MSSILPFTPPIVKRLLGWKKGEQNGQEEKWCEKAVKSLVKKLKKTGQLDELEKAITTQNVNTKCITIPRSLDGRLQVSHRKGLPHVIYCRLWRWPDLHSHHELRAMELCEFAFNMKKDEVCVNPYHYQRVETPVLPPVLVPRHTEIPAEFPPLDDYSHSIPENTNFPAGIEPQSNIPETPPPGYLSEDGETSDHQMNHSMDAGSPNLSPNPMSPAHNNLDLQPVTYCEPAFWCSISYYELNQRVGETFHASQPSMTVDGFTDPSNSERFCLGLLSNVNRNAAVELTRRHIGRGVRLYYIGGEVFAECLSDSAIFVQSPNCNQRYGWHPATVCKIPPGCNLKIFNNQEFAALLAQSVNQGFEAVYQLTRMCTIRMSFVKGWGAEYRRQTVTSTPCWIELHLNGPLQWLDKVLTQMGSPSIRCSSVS

What was measured:
FLAG-Smad4 [1] = target: FLAG-Smad4 (UniProt Q13485); assay: co-IP; co-IP of Smad4 variants with CBP (Supplementary Fig. 5h) and of the YF mutant with p300 (Supplementary Fig. 5i); cells and tags not shown
ABL1 [2] = target: ABL1 (UniProt P00519); assay: co-IP; HEK293T cells transiently transfected with tagged expression plasmids; lysates incubated with primary antibody (anti-FLAG as in Fig. 3a) and protein A Sepharose at 4 °C for 4 h; western blotting; in Fig. 5g with co-expressed FLAG-ABL1 or FLAG-ABL1-KD
[3] = target: FLAG-Smad4 YE mutant (Y195E/Y301E/Y322E) (UniProt Q13485); assay: as above
[4] = target: Smad4 YF mutant (Y195F/Y301F/Y322F) (UniProt Q13485); assay: co-IP; co-IP of Smad4 variants with CBP (Supplementary Fig. 5h) and of the YF mutant with p300 (Supplementary Fig. 5i); cells and tags not shown
MYC-Smad4 = MYC-Smad4 (UniProt Q13485); assay: co-IP; HEK293T cells transiently transfected with tagged expression plasmids; lysates incubated with primary antibody (anti-FLAG as in Fig. 3a) and protein A Sepharose at 4 °C for 4 h; western blotting; in Fig. 5g with co-expressed FLAG-ABL1 or FLAG-ABL1-KD
FLAG-Smad4 [5] = target: FLAG-Smad4 (UniProt Q13485); assay: as above
ABL1 [6] = target: ABL1 (UniProt P00519); assay: co-IP; domain mapping: Smad4 co-expressed individually with ABL1 deletion mutants, and ABL1 with Smad4 domains (Supplementary Fig. 3c-f); cells and tags not shown
[7] = target: Smad4 WT stably expressed in Smad4-null HaCaT cells (UniProt Q13485); assay: co-IP; Smad4-null HaCaT cells stably expressing WT or YE mutant of Smad4, treated with TGF-β or SB431542; IP-western blotting
[8] = target: Smad4 YE mutant (Y195E/Y301E/Y322E) stably expressed in Smad4-null HaCaT cells (UniProt Q13485); assay: as above
[9] = target: Smad4, endogenous in HaCaT cells (human (endogenous in HaCaT)) (UniProt Q13485); assay: co-IP; endogenous proteins, HaCaT cells with or without stable expression of ABL1, treated with TGF-β or SB431542; IP-western blotting
[10] = target: Smad4, endogenous in K562 cells (human (endogenous in K562)) (UniProt Q13485); assay: co-IP; endogenous proteins, K562 cell lysate, without Imatinib (Fig. 5i: TGF-β 2 ng/ml or SB431542 5 μM); IP-western blotting
[11] = target: Smad4, endogenous in K562 cells (human (endogenous in K562)) (UniProt Q13485); assay: co-IP; endogenous proteins, K562 cells treated with Imatinib (0.5 μM), with TGF-β (2 ng/ml) or SB431542 (5 μM) as indicated; IP-western blotting

Substance: CBP (from UniProt Q92793 1-2442)
binding (FLAG-Smad4 [1]): binds

Substance: FLAG-Smad4 (from UniProt Q13485 1-552)
binding (ABL1 [2]): binds

Substance: MH2 domain of Smad4 (from UniProt Q13485 323-552) (domain or fragment)
binding (ABL1 [6]): binds

Substance: p300, endogenous in HaCaT cells (from UniProt Q09472 1-2414)
binding [7]: binds
binding [8]: no binding
binding [9]: binds

Other lines, results leading:

binding [3]: binds
Substance: HA-Smad2 (from UniProt Q15796 1-467)

binding [3]: binds
Substance: HA-Smad3 (from UniProt P84022 1-425)

binding [4]: binds
binding (MYC-Smad4): binds
binding (FLAG-Smad4 [5]): binds
Substance: HA-p300 (from UniProt Q09472 1-2414)

binding [10]: binds weakly
binding [11]: binds
Substance: p300, endogenous in K562 cells (from UniProt Q09472 1-2414)
